In PubChem BioAssay AID504832 (National Center for Advancing Translational Sciences (NCATS), 2011):
Hit rate of the full screen: of about 310,000 compounds, about 18,000 (5.8%) were called active. This list was built around the results that the source calls inconclusive (neither active nor inactive); the mix of calls is not that of the screen. The call rests on the fitted dose curve; in most records, active means well fitted inhibition curve with a large enough effect; inconclusive means small, poorly fitted or top-dose-only effect, or another doubt; inactive means no such curve, though single readings can be large or run the other way. Potencies of inconclusive entries are left out as doubtful fits.

Assay: Primary qHTS for delayed death inhibitors of the malarial parasite plastid, 48 hour incubation
Details: P. falciparum luciferase growth in erythrocytes; series mostly up to 28.7 µM; activity change, negative = inhibition: at the top concentration
How it was run: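 Parasite viability was followed by luminescence of a genomically integrated firefly luciferase. Cultures held 0.1% parasitemia at 2% hematocrit (final), incubated under 5% CO2 at 37 C.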
On the % scale 0 is the no-effect control and ±100 the full control effect; potency means the concentration at half of the fitted maximal effect; tags describe the fitted curve by direction and shape.

SMILES | activity change, negative = inhibition | Potency
O=C(c1ccc(=O)[nH]n1)N1CCc2ccccc2C1 | inactive: -3.76% | 
Cc1ccccc1C1CC(c2ccc(F)cc2)Nc2nc(N)nn21 (centres undefined) |  | inconclusive [inhibitor, single point]
O=[N+]([O-])c1cc(/C=N\Nc2nccs2)ccc1O |  | inconclusive [inhibitor, partial curve, poor fit]
CCOc1ccc(S(=O)(=O)NCCC(=O)N2CCN(Cc3ccccc3)CC2)cc1 |  | inconclusive [inhibitor, partial curve, poor fit]
CCC(=O)N(Cc1cc(=O)[nH]c2ccccc12)c1ccc(C)cc1 |  | inconclusive [inhibitor, full curve, poor fit]
CNC(=S)N1N=C(c2ccc(C)cc2)CC1c1ccc(N(C)C)cc1 (centres undefined) |  | inconclusive [inhibitor, single point]
COc1cc(C=O)ccc1OC(=O)c1cccnc1 |  | inconclusive [inhibitor, full curve, poor fit]
Cc1cc(C)c2cc(C#N)c(SCC(=O)NCC3CCCO3)nc2c1 (centres undefined) |  | inconclusive [inhibitor, single point]
N#Cc1ccc(C23CC4(C2)[C@H](CN(CC2CCCCC2)[C@@H]4c2ccccc2)C3c2ccc(Cl)nc2)cc1 (some centres undefined) |  | inconclusive [inhibitor, partial curve, poor fit]
COc1ccc(N2CCN(S(=O)(=O)c3ccc4c(c3)CCCC4)CC2)c([N+](=O)[O-])c1 | inactive: 1.66% | 
Cc1ccccc1OCCn1c(=S)[nH]c2ccccc21 |  | inconclusive [inhibitor, partial curve]
O=C(Cn1c2ccccc2c(=O)c2ccccc21)Nc1cccc(F)c1 |  | active: 14.7 µM
CCN(C(=O)CSc1nnc(NCc2ccccc2)s1)C1CCS(=O)(=O)C1 (centres undefined) | inactive: 14.7% | 
CCCCCn1c(NC(=O)c2ccco2)c(C(=O)OCC)c2nc3ccccc3nc21 |  | inconclusive [inhibitor, single point]
Cc1cnc(C(=O)Nc2ccc(C)c(S(=O)(=O)N(C)C)c2)cn1 | inactive: 32% | 
N#CCSc1nc2cc(C(=O)N3CCCC3)ccc2c(=O)n1Cc1ccccc1 |  | inconclusive [inhibitor, partial curve]
Cc1cccc(C)c1-n1cccc1/C=C1\SC(=S)N(c2cccc(C(=O)O)c2)C1=O | inactive: 10.8% | 
COC(=O)c1ccc(C(=O)OC)c(NC(=O)CN2CCCCC2)c1 |  | inconclusive [inhibitor, full curve, poor fit]
COC(=O)c1cc2c(C)nn(-c3ccccc3)c2s1 | inactive: 38.4% | 
NS(=O)(=O)c1ccc(-c2cccc(/C=C3\SC(=O)NC3=O)c2)cc1 |  | inconclusive [inhibitor, full curve, poor fit]
COc1ccc(N(CC(=O)NCc2ccccc2Cl)S(=O)(=O)c2c(C)noc2C)cc1 |  | inconclusive [inhibitor, single point]
COc1ccccc1NC(=O)CN1CCN(c2ccccc2OC)CC1 |  | inconclusive [inhibitor, single point]
COC(=O)N/N=C/c1cn(CCOc2ccc(OC)cc2)c2ccccc12 | inactive: 7.03% [at 0.00184 µM] | 

SMILES | activity change, negative = inhibition | Potency
CCC(=Nc1ccccc1O)C1=C(O)CC(c2ccccc2)CC1=O (centres undefined) |  | inconclusive [inhibitor, single point]
COc1ccc(CC(=O)OC(C)CN2CCCCC2)cc1 (centres undefined) | inactive: 9.22% | 
CC12CCC(=O)N1C(C(=O)Nc1cc(C(F)(F)F)ccc1N1CCCCC1)CS2 (centres undefined) |  | active: 9.28 µM
CCOc1cc2[nH]c(=S)n(CCCC(=O)NCc3ccccn3)c(=O)c2cc1OCC |  | inconclusive [inhibitor, partial curve]
CCCSC1=C(C#N)C(c2ccccc2OCC)CC(=O)N1 (centres undefined) |  | inconclusive [inhibitor, partial curve, poor fit]
Cc1nc2sc(C(c3ccc(C(C)C)cc3)N3CCN(CCO)CC3)c(O)n2n1 (centres undefined) |  | inconclusive [inhibitor, partial curve, poor fit]
O=c1[nH]c2ccccc2[n+]([O-])c1-c1ccccc1 | inactive: 9.87% | 
CCc1nnc(N/N=C/c2cc(Br)c(O)cc2O)n1N |  | inconclusive [inhibitor, single point]
N#Cc1c(-c2ccccc2)c(-c2ccccc2)nn(CC(=O)NNC(=O)Nc2ccccc2)c1=O |  | inconclusive [inhibitor, partial curve]
O=C(O)C1CC=CCC1C(=O)Nc1cccnc1 (centres undefined) |  | active: 9.28 µM
CCOC(=O)C1(S(=O)(=O)c2ccccc2)CCN(Cc2ccc(Cl)cc2)CC1 |  | inconclusive [inhibitor, single point]
CCCCNC(=O)CCCCCNS(=O)(=O)c1ccc(OC)cc1 | inactive: 5.44% | 
COc1ccc(C(=O)NCCN2C(=O)S/C(=C\c3cccnc3)C2=O)cc1[N+](=O)[O-] |  | inconclusive [inhibitor, partial curve, poor fit]
CCOC(=O)c1c(-c2ccco2)csc1NC(=O)CSc1nnc(N)s1 | inactive: 5.8% | 
CCCC(=O)N(c1ccc(C(=O)O)cc1)c1nc(-c2ccccc2)c(C)s1 |  | inconclusive [inhibitor, partial curve, poor fit]
COc1ccc(S(=O)(=O)N(CCCN2CCCC2=O)Cc2cc3cc(C)c(C)cc3[nH]c2=O)cc1 |  | inconclusive [inhibitor, single point]
Cc1c(C)c2ccc(OC(C)C(=O)NC3CC(C)(C)NC(C)(C)C3)cc2oc1=O (centres undefined) |  | inconclusive [inhibitor, partial curve, poor fit]
Cc1ccccc1C(=O)NC1CC2CCCC(C1)N2Cc1ccccc1 (centres undefined) | inactive: -2.66% | 
CC(C)Cc1nnc(NC(=O)CCC(=O)N2CCN(c3ccc(F)cc3)CC2)s1 | inactive: -20.8% | 
COc1ccc(CC(NC(C)=O)C(=O)NC2CCN(c3nc(C)cc(C)c3C#N)CC2)cc1OC (centres undefined) |  | inconclusive [inhibitor, partial curve]
CC(=O)N1CCN(c2ccc(Oc3ccc([N+](=O)[O-])c(C(F)(F)F)c3)cc2)CC1 |  | inconclusive [inhibitor, single point]
COc1ccc2c(c1)c(C)cc[n+]2Cc1ccccc1 |  | inconclusive [inhibitor, full curve, poor fit]
COc1cccc(CNC(=O)COC(=O)c2ccc(C(=O)c3ccccc3)cc2)c1 |  | inconclusive [inhibitor, single point]

SMILES | activity change, negative = inhibition | Potency
Cc1ccc(O)c(NC(=O)c2cccc(S(=O)(=O)N3CCCCC3)c2)c1 |  | inconclusive [inhibitor, single point]
Cc1ccc(C(=O)COC(=O)c2cnccn2)cc1 | inactive: 10.6% | 
CCC1(CC)Nc2ccccc2C(=O)N1c1ccc(NC(C)=O)cc1 | inactive: 52.7% | 
O=C(COC(=O)c1ncc(Cl)c(Cl)c1Cl)Nc1cccnc1Cl | inactive: -0.527% | 
COc1ccc([C@H]2CC(=O)C=C(c3ccc(OC(F)(F)F)cc3)C2)cc1OC |  | inconclusive [inhibitor, single point]
CCC(C)NCC(=O)Nc1cc(S(=O)(=O)N(CC)c2ccccc2)ccc1Cl (centres undefined) |  | inconclusive [inhibitor, single point]
CN(C)N=C1c2cc(S(=O)(=O)N(C)C)ccc2-c2ccc(S(=O)(=O)N(C)C)cc21 |  | active: 13.1 µM
CCC(=O)Nc1ccc(/C(C)=N\NS(=O)(=O)c2ccc(C)cc2)cc1 | inactive: -4.24% | 
CCN(CC)CCCNC(=O)c1cc(-c2ccc3c(c2)OCO3)on1 | inactive: 10.8% | 
COC(=O)C1=C(c2cccc(OCc3ccccc3)c2)C[C@@H]2CC[C@H]1N2C(=O)NCc1ccc(N(C)C)cc1 |  | active: 8.28 µM
COC(=O)CCCC1=CC2=C(c3ccccc3)C(=O)C(C)(OC(=O)C3CCCC3)C(=O)C2=CN1C1CCCC1 (centres undefined) |  | inconclusive [inhibitor, single point]
O=C(CCn1[nH]c(=O)c2ccccc2c1=O)OC1CCCCC1 |  | inconclusive [inhibitor, single point]
COc1c(C)cc(C(=O)C2CCCN(C(=O)c3cc(C4CC4)[nH]n3)C2)cc1C (centres undefined) |  | inconclusive [inhibitor, partial curve, poor fit]
Cc1ccc(C)c(C(=O)CN2C(=O)NC3(CCc4ccccc43)C2=O)c1 (centres undefined) |  | inconclusive [inhibitor, single point]
O=C(CCCn1c(=O)c2sccc2n(CC(=O)OCc2ccccc2)c1=O)NCc1ccco1 |  | inconclusive [inhibitor, partial curve, poor fit]
Clc1ccc(OCc2cc(-c3ccccc3)no2)c(Cl)c1 | inactive: 80.8% | 
CC(OC(=O)CNC(=O)c1ccc2ccccc2c1)C(=O)NC1CCCCC1C (centres undefined) | inactive: 36.6% | 
CC(C)CNc1ncnc2c1sc1nc(N3CCOCC3)c3c(c12)CC(C)(C)OC3 |  | inconclusive [inhibitor, partial curve]
COc1ccccc1NCC(=O)n1nc(C)cc1C | inactive: 0% | 
CC(=O)C(=[N+]=[N-])C(=O)NCc1ccccc1 | inactive: 11.7% | 
Cc1ccc(C)c(OCCn2cc(C(=O)O)c3ccccc32)c1 | inactive: 23.5% | 
CC(C)c1ccc(C2(C)NC(=O)N(C(C)C(=O)Nc3ccc(N4CCOCC4)cc3)C2=O)cc1 (centres undefined) |  | inconclusive [inhibitor, partial curve]
Cc1cc(OC(C)C(=O)NCc2ccncc2)c2c(C)c(C)c(=O)oc2c1 (centres undefined) | inactive: -6.26% | 
